# Laboratory results reported in the supplement of paper PMC12645437, “Orthogonal IMiD-Degron Pairs Induce Selective Protein Degradation in Cells” (ACS Chemical Biology, 2025).
# This is one part of the list.
# B1: Q9UKT9 (peptide)
# chain: FACPICGHPFTQKGNLLRHIKL
# B2: Q9UKT9 (peptide)
# chain: FMCDICGAGFTQKGNLLRHIKL
# B3: Q9UKT9 (peptide)
# chain: FMCEVCGATFTQKGNLLRHIKL
# B4: Q9UKT9 (peptide)
# chain: FACDQCGAQFTQKGNLLRHIKL
# B5: Q9UKT9 (peptide)
# chain: LVCPICGFQCTQKGNLLRHIKL
# B6: Q9UKT9 (peptide)
# chain: FECPICGRKFTQKGNLLRHIKL
# B7: Q9UKT9 (peptide)
# chain: LSCNQCGFICTQKGNLLRHIKL
# B8: Q9UKT9 (peptide)
# chain: FVCNQCGHIFTQKGNLLRHIKL
# B9: Q9UKT9 (peptide)
# chain: FACEICGAKFTQKGNLLRHIKL
# B10: Q9UKT9 (peptide)
# chain: FFCEICGRNFTQKGNLLRHIKL
# B11: Q9UKT9 (peptide)
# chain: FFCPICGHFFTQKGNLLRHIKL
# B12: Q9UKT9 (peptide)
# chain: FDCEICGRLFTQKGNLLRHIKL
# B13: Q9UKT9 (peptide)
# chain: FGCEVCGADFTQKGNLLRHIKL
# B14: Q9UKT9 (peptide)
# chain: FSCNQCGAPFTQKGNLLRHIKL
# B15: Q9UKT9 (peptide)
# chain: FLCDVCGAGFTQKGNLLRHIKL
# B16: Q9UKT9 (peptide)
# chain: FGCEQCGARFTQKGNLLRHIKL
# B17: Q9UKT9 (peptide)
# chain: FICPVCGAKFTQKGNLLRHIKL
# B18: Q9UKT9 (peptide)
# chain: FHCEICGHLFTQKGNLLRHIKL
# B19: Q9UKT9 (peptide)
# chain: FHCNQCGREFTQKGNLLRHIKL
# B20: Q9UKT9 (peptide)
# chain: FDCDQCGAIFTQKGNLLRHIKL
# B21: Q9UKT9 (peptide)
# chain: LGCEICGFTCTQKGNLLRHIKL
# B22: Q9UKT9 (peptide)
# chain: FICEICGRMFTQKGNLLRHIKL
# B23: Q9UKT9 (peptide)
# chain: FFCNQCGAPFTQKGNLLRHIKL
# B24: Q9UKT9 (peptide)
# chain: FVCPICGRMFTQKGNLLRHIKL
# B25: Q9UKT9 (peptide)
# chain: FHCPVCGAWFTQKGNLLRHIKL
# B26: Q9UKT9 (peptide)
# chain: FKCNQCGAMFTQKGNLLRHIKL
# B27: Q9UKT9 (peptide)
# chain: LDCEICGFTCTQKGNLLRHIKL
# B28: Q9UKT9 (peptide)
# chain: FACDVCGAPFTQKGNLLRHIKL
# B29: Q9UKT9 (peptide)
# chain: FFCNVCGAYFTQKGNLLRHIKL
# B30: Q9UKT9 (peptide)
# chain: FVCNQCGRVFTQKGNLLRHIKL
# B31: Q9UKT9 (peptide)
# chain: FCCPICGRPFTQKGNLLRHIKL
# B32: Q9UKT9 (peptide)
# chain: LHCNQCGFHCTQKGNLLRHIKL
# B33: Q9UKT9 (peptide)
# chain: FWCPICGHEFTQKGNLLRHIKL
# B34: Q9UKT9 (peptide)
# chain: FFCNQCGAYFTQKGNLLRHIKL
# B35: Q9UKT9 (peptide)
# chain: FTCNQCGRWFTQKGNLLRHIKL
# B36: Q9UKT9 (peptide)
# chain: FECDICGAVFTQKGNLLRHIKL
# B37: Q9UKT9 (peptide)
# chain: LRCEICGFPCTQKGNLLRHIKL
# B38: Q9UKT9 (peptide)
# chain: FCCDQCGAYFTQKGNLLRHIKL
# B39: Q9UKT9 (peptide)
# chain: FQCNQCGAFFTQKGNLLRHIKL
# B40: Q9UKT9 (peptide)
# chain: FLCPICGALFTQKGNLLRHIKL
# B41: Q9UKT9 (peptide)
# chain: FGCDICGACFTQKGNLLRHIKL
# B42: Q9UKT9 (peptide)
# chain: FWCEICGHYFTQKGNLLRHIKL
# B43: Q9UKT9 (peptide)
# chain: LACEICGFYCTQKGNLLRHIKL
# B44: Q9UKT9 (peptide)
# chain: LHCNQCGFACTQKGNLLRHIKL
# B45: Q9UKT9 (peptide)
# chain: LYCEICGFNCTQKGNLLRHIKL
# B46: Q9UKT9 (peptide)
# chain: FSCEICGHHFTQKGNLLRHIKL
# B47: Q9UKT9 (peptide)
# chain: FDCPICGHNFTQKGNLLRHIKL
# B48: Q9UKT9 (peptide)
# chain: FICNQCGAAFTQKGNLLRHIKL
# B49: Q9UKT9 (peptide)
# chain: FECPQCGAGFTQKGNLLRHIKL
# B50: Q9UKT9 (peptide)
# chain: FFCDVCGACFTQKGNLLRHIKL
# Target: no compound (DMSO)
# Assay: log2 fold change of degron read counts, EGFP-low vs EGFP+ sorted cells; higher = lower degron-EGFP level without compound (poor expression or instability)
# Conditions: compound: DMSO control; 18 h
# 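Further: jurkat cells carrying a lentiviral library of mutant zinc finger degrons fused to EGFP plus mCherry, mCherry+ cells FACS sorted, degron abundance counted by next-generation sequencing.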
row,Sequence,log2 fold change of degron read counts
1,B1,0.457
2,B2,-1.24
3,B3,-1.76
4,B4,-2
5,B5,0.357
6,B6,-0.352
7,B7,0.885
8,B8,0.0579
9,B9,-2.26
10,B10,-1.52
11,B11,1.17
12,B12,0.0112
13,B13,-1.85
14,B14,0.0681
15,B15,-2.55
16,B16,-2.19
17,B17,-1.06
18,B18,-0.4
19,B19,-0.464
20,B20,-0.658
21,B21,0.281
22,B22,-0.689
23,B23,0.89
24,B24,-0.105
25,B25,0.282

row,Sequence,log2 fold change of degron read counts
1,B26,-0.433
2,B27,0.557
3,B28,-0.749
4,B29,0.952
5,B30,0.15
6,B31,0.195
7,B32,1.1
8,B33,0.632
9,B34,0.647
10,B35,0.49
11,B36,-2.02
12,B37,1.54
13,B38,-0.198
14,B39,-1.07
15,B40,0.707
16,B41,-0.944
17,B42,0.206
18,B43,1.09
19,B44,1.06
20,B45,0.818
21,B46,-0.665
22,B47,-0.605
23,B48,-1.74
24,B49,-1.82
25,B50,-0.38
